# Measured values published in article PMC4336329 (PLoS ONE, 2015).
# Screen size: about 310,000 compounds; about 14,000 (4.5%) showed an effect of 50% or more. Effects have a minus sign here. Some of the results follow.
# Target: human ether-à-go-go-related gene (hERG) potassium channel (human, UniProt Q12809)
# Assay: primary screen, population patch clamp on CHO cells stably expressing hERG
# 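Further: peak tail current of the secondary pulse compared with the same well before compound.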
# Chain of human ether-à-go-go-related gene (hERG) potassium channel (Q12809 whole entry, looked up): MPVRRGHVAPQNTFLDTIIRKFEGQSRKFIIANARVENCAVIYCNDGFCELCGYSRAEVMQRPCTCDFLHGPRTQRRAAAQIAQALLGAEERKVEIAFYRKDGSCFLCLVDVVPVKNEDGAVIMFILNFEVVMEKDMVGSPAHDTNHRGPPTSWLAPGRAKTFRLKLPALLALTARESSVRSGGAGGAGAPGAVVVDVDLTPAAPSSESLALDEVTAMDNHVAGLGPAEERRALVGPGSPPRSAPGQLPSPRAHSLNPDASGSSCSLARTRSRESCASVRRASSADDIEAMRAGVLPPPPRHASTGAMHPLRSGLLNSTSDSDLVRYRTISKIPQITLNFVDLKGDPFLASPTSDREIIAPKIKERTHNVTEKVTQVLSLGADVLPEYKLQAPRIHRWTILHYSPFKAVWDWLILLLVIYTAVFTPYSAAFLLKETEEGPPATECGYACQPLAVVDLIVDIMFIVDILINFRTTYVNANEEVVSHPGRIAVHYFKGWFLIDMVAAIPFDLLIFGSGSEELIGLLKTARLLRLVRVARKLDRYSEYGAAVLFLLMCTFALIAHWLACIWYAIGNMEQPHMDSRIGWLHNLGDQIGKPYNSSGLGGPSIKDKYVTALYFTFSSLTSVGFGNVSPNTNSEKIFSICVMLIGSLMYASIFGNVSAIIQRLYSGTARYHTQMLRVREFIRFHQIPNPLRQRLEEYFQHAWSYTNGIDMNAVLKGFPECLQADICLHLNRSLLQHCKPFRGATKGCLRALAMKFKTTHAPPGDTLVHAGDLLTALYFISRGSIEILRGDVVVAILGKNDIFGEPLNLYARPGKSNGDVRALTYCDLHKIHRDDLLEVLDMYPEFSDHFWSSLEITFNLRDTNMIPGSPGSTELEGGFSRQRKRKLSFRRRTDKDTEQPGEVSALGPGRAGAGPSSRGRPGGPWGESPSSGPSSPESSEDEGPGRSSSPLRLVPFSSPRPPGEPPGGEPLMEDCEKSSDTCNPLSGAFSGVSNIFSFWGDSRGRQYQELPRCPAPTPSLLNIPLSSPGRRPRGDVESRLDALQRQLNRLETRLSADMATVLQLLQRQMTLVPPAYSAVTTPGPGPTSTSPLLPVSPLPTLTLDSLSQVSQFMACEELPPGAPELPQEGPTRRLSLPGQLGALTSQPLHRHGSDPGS
row,SMILES,"hERG current change (%, negative = inhibition) at 10uM"
1,CCOC(=O)C1=C(NC(=S)NC(=O)c2ccccc2)c2ccccc2CC1(C)C,-18.4%
2,NC(N)=N/N=C/c1c(Cl)cccc1Cl,-10.3%
3,Cc1c(C(=O)O)sc2nc(SCC(=O)Nc3ccc(S(=O)(=O)NCCCC(=O)O)cc3)[nH]c(=O)c12,9.34%
4,CCc1oc(C(=O)O)cc1CN(CC)CC.Cl,11.9%
5,COc1ccc(C2CC(C(F)(F)F)n3nc(C(=O)Nc4ccc5c(c4)OCO5)cc3N2)cc1 (centres unmarked),10.5%
6,COc1ccc(NC(C#N)c2ccccc2OCc2ccccc2)cc1 (centres unmarked),1.21%
7,Cc1cccc(NCc2ccccc2O)c1,7.25%
8,O=C1CC(N2CCOCC2)C(=O)N1c1ccc(Cl)cc1 (centres unmarked),0.986%
9,CC(C)(C)S(=O)(=O)c1cnc2c(-c3ccc(Cl)cc3)cnn2c1N,7.81%
10,CC12CCCCC1=NC(c1ccc(Br)cc1)N2O (centres unmarked),-9.79%
11,S=c1[nH]nc(-c2ccccc2)n1/N=C/c1cccs1,-3.65%
12,CCn1c(SCC(=O)Nc2nccs2)nnc1-c1ccccc1,-3.57%
13,COc1ccc(NC(C)=O)cc1S(=O)(=O)Nc1ccc(OCc2ccccc2)cc1,17.2%
14,CC(=O)N1CCOc2ccc(S(=O)(=O)N3CC(C)CC(C)C3)cc21 (centres unmarked),-14.8%
15,CCOC(=O)c1sc2cccc(Cl)c2c1N,4.12%
16,CCn1c(SCC(=O)N2CCCc3ccccc32)nc2c1c(=O)n(C)c(=O)n2C,-10.6%
17,COc1c(Cl)cc(Cl)cc1CNCCO.Cl,-4.18%
18,CCOc1ccc(Oc2cc(N)cc([N+](=O)[O-])c2)cc1,-14.5%
19,CN1C(=O)C(C)(C)c2cc(S(=O)(=O)N3CCCC3C(=O)NCc3ccc(F)cc3)ccc21 (centres unmarked),-1.37%
20,CCOc1ccc(C(=O)C(c2ccccc2)N2CCOCC2)cc1.Cl (centres unmarked),-10.4%
21,Cc1ccc(NC(=O)CN2C(=O)c3ccccc3C2=O)cc1,19.9%
22,O=C(Nc1cccc(-c2cn3ccccc3n2)c1)c1cc2ccccc2oc1=O,15.1%

row,SMILES,"hERG current change (%, negative = inhibition) at 10uM"
1,COc1ccc2c(=O)c3c(=O)n(Cc4ccco4)c(-c4ccccc4)nc3oc2c1,-32.2%
2,COc1cccc(C2=NOC(C(=O)NC(C)(C)C)C2)c1 (centres unmarked),9.93%
3,C=CCNC(=S)NCC1COc2ccccc2O1 (centres unmarked),19.6%
4,O=C(c1ccc(=O)n(Cc2ccccc2)n1)N1CCN(C/C=C/c2ccccc2)CC1,-51.9%
5,COc1ccccc1NC(=O)Cn1cnc2c(nnn2-c2ccc(C)cc2)c1=O,5.06%
6,Cc1ccc(OCc2cc(C(=O)N3CCN(C)C[C@@H]3c3ccccc3)no2)cc1C,-19.4%
7,CC(C)OC(=O)Cn1c(=O)oc2ccccc21,7.64%
8,Cc1ccc(C(=O)N/C(=C\c2ccc(C)o2)C(=O)O)cc1,10.8%
9,Cl.SC(COCc1ccccc1)CN1CCN(Cc2ccc3c(c2)OCO3)CC1 (centres unmarked),-11.6%
10,O=C(CN1CCCC1)N/N=C/c1ccc(-c2cccc(Cl)c2)o1,-62.2%
11,CC1SC(c2ccccc2Cl)NC1=O (centres unmarked),20.1%
12,CC(C)N(C(=S)NC1CCCCC1)c1ccccc1,16.8%
13,CCOC(=O)C1CCN(S(=O)(=O)c2ccc3[nH]c(=O)ccc3c2)CC1,-45.3%
14,O=C(O)/C=C/C(=O)Nc1ccc(Cl)c(C(=O)O)c1,17.8%
15,CCc1ccc(N2C(=O)Cc3c2nc(N)c(C#N)c3N)cc1,5.29%
16,Cc1ccc(Nc2nnc(SCC(=O)c3ccc(O)cc3O)s2)cc1,18.4%
17,Cn1nc(C(=O)Nc2cccnc2)c2ccccc2c1=O,1.21%
18,C#CCOc1ccc(/C=C2/C(=O)ON=C2C)cc1Br,16.2%
19,Cc1cccc2sc(NC(=O)CN3C(=O)NC4(CCCC4)C3=O)nc12,-16.3%
20,Cc1ccc(CN2CCN(/N=C\C(Br)=C\c3ccccc3)CC2)cc1,-14.9%
21,NC1=NC(=O)C(Cc2ccc(Br)cc2)S1 (centres unmarked),14.8%
22,O=C(C1CC1)N(Cc1nc2ccccc2c(=O)[nH]1)Cc1cccs1,-6.11%
